Measured values: PubChem BioAssay AID602310 (National Center for Advancing Translational Sciences (NCATS), 2012)
About 310 (0.076%) of roughly 410,000 compounds were called active. Inconclusive means that the source gave no clear call. Such entries were picked first, then a sample of the others. Calls come from the whole dose curve; as a rule, active = well fitted curve in the direction sought with a large enough effect; inconclusive = small, poorly fitted or top-dose-only effect; inactive = flat fitted curve, though single readings scatter. Potencies of inconclusive entries are doubtful fits and often do not repeat.

target: DNA dC->dU-editing enzyme APOBEC-3G (Homo sapiens) (UniProt Q9HC16); assay: qHTS for Inhibitors of Vif-A3G Interactions: qHTS; conditions: HeLa A3G-eYFP + Vif (tagged APOBEC3G with the HIV-1 protein that degrades it), YFP fluorescence, overnight; series mostly up to 46.1 µM; activity, negative = active: at the top concentration; note: nearly all actives have a fitted effect of over 60% in size;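 for activity, negative = active: hits raise eYFP signal because A3G escapes Vif-driven loss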
Chain of UniProt Q9HC16 (Q9HC16 whole entry, looked up): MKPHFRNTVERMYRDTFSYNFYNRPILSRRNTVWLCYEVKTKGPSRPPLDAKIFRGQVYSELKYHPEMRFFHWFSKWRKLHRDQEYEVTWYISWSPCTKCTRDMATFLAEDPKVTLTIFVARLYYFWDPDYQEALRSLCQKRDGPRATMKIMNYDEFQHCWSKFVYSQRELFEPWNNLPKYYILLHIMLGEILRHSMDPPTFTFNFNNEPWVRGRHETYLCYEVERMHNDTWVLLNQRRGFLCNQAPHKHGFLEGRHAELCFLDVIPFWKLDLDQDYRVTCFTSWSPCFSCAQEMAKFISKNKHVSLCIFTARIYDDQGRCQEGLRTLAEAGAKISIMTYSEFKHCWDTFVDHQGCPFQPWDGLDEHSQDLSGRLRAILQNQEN
Method in brief: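 HeLa cells stably expressing Vif and C-terminally eYFP-tagged A3G, seeded overnight at 37 deg C, then exposed to compound by pintool overnight at 37 deg C. Rise in yellow fluorescence (Ex 488/Em 500-530, Acumen) marks blocked Vif-driven A3G degradation.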
% is set by controls: 0 for no effect and ±100 for the full control effect; potency is the fitted concentration of half-maximal effect; tags give direction and shape of the fitted curve.

SMILES	Potency	activity, negative = active
CCCNc1c(NS(=O)(=O)c2c(F)c(F)c(F)c(F)c2F)c(=O)oc2ccccc12	inconclusive: 31.6 µM [inhibitor, single point]	
CCOc1ccccc1C1CC(c2ccc(Br)cc2)Nc2nc(N)nn21 (configuration not stated)	inconclusive: 20 µM [inhibitor, single point]	
Cn1cc(/C=N/n2cnc3scc(-c4ccccc4)c3c2=O)c2ccccc21	inconclusive: 1.26 µM [inhibitor, full curve, poor fit]	
COc1ccc(C(=O)/C=C/Nc2ccc([N+](=O)[O-])cc2C)cc1OC	inconclusive: 3.55 µM [inhibitor, single point]	
CN1CCN(c2ccccc2NC(=O)c2ccc(-c3ccc(Br)cc3)o2)CC1	inconclusive: 3.55 µM [inhibitor, full curve]	
CC12C=CC(=O)C=C1CCC1C3CCC(O)(C(=O)CO)C3(C)CC(O)C12F (configuration not stated)		inactive: -0.462%
CCN(CC)c1ccc(/C=N/NC(=O)c2nnn(-c3nonc3N)c2C(C)C)c(O)c1		inactive: -10.5%
COC(=O)c1ccc2nc(-c3ccc(C)cc3)c(Cc3ccsc3)n2c1	inconclusive: 22.4 µM [inhibitor, partial curve, poor fit]	
CC(C)Cn1c(-c2csc(C(C)C)c2)n[nH]c1=S		inactive: -10.9%
COc1cc(OC)cc(C(=O)NNC(=S)NCc2ccco2)c1		inactive: 6.84%
COc1cc(-c2cc(NC(C)=O)c3ncc(-c4cc(OC)c(OC)c(OC)c4)n3c2)cc(OC)c1OC	inconclusive: 17.8 µM [inhibitor, single point]	
COc1ccc(C(CCN)Cc2ccccc2)cc1 (configuration not stated)		inactive: 0.572%
CC[C@]12CCCN3CCc4c(n(c5ccccc45)C(=O)C1)[C@@H]32	inconclusive: 7.08 µM [inhibitor, full curve]	
Cc1ccc(S(=O)(=O)CCC(=O)OCC(=O)c2cc(C)ccc2C)cc1		inactive: 1%
N#C/C(=C\N1CCN(Cc2ccc3c(c2)OCO3)CC1)c1nc2ccccc2s1	inconclusive: 35.5 µM [inhibitor, single point]	
Cc1nc(C)c(C(=O)OCC(=O)Nc2ccccc2SCC#N)s1	inconclusive: 15.8 µM [inhibitor, partial curve, poor fit]	
N#C/C(=C/c1ccc(N2CCOCC2)o1)C(=O)Nc1ccccc1	inconclusive: 2.82 µM [inhibitor, partial curve, poor fit]	
O=C(NNC(=S)Nc1ccccc1)c1ccccc1[N+](=O)[O-]		inactive: 1.11%
Cc1onc(-c2ccccc2)c1C(=O)Nc1sc2c(c1C#N)CCC(C)C2 (configuration not stated)	inconclusive: 3.55 µM [inhibitor, full curve]	
CC(C)(C)NCC(=Cc1ccccc1)C(=O)c1ccccc1	inconclusive: 6.31 µM [inhibitor, partial curve, poor fit]	
Cc1ccc(NS(=O)(=O)c2ccc(C(=O)NNC(=O)c3ccccc3O)cc2)cc1		inactive: -2.7%
Nc1nc(N2CCN(C(=O)c3ccco3)CC2)nc2ccc(Br)cc12		inactive: 11.7%
O=C(CCl)Nc1cn(-c2ccccc2)nc1-c1ccc(F)cc1	inconclusive: 28.2 µM [inhibitor, single point]	
COc1ccc(C2c3cc4c(cc3OC(NNC(N)=O)C2C)OCO4)cc1 (configuration not stated)	inconclusive: 8.91 µM [inhibitor, partial curve]	

SMILES	Potency	activity, negative = active
O=C1CN(C(=O)CSc2nc3ccccc3c(=O)n2Cc2ccc(F)cc2)c2ccccc2N1		inactive: -13.3%
CCc1ccc(OCC(=O)NNC(=S)NC(=O)C2CCCCC2)c(Br)c1		inactive: -2.93%
CN(C)c1ccc(/C=C/C=C/c2ccnc3ccccc23)cc1	inconclusive: 2.51 µM [inhibitor, full curve, poor fit]	
CCC1=NN2C(=N)/C(=C\c3cccn3-c3ccc(C)cc3C)C(=O)N=C2S1	inconclusive: 22.4 µM [inhibitor, single point]	
CCN1C(=O)C(=CC=CN(C)c2ccccc2)SC1=S	inconclusive: 2 µM [inhibitor, full curve, poor fit]	
CCCCn1c(=N)n(CC(=O)c2ccc(Br)s2)c2ccccc21	inconclusive: 22.4 µM [inhibitor, single point]	
Cc1ccc(N=C2NC(=O)CC(C(=O)Nc3ccc4c(c3)OCO4)S2)cc1 (configuration not stated)	inconclusive: 15.8 µM [inhibitor, partial curve, poor fit]	
Cc1ccc2nc(-c3cccc(N)c3)[nH]c2c1		inactive: -1.13%
COc1ccccc1-c1nnc(NC(=O)CCS(=O)(=O)c2ccccc2)o1	inconclusive: 25.1 µM [inhibitor, single point]	
CCOC(=O)C1=C(C)N(c2ccc(OC)cc2)C(=O)/C1=C\c1ccc(O)c(OCC)c1		inactive: -8.06%
CC(O)CN(CC(C)O)c1ccc2c(c1)Cc1cc([N+](=O)[O-])ccc1-2 (configuration not stated)	inconclusive: 1.58 µM [inhibitor, full curve, poor fit]	
O=C(CCl)N1CCN(S(=O)(=O)c2ccc3c(c2)CCC3)CC1	inconclusive: 35.5 µM [inhibitor, single point]	
CC1=C(C(=O)Nc2ccccc2)C(c2ccc[nH]2)n2ncnc2N1 (configuration not stated)	inconclusive: 35.5 µM [inhibitor, single point]	
C[N+]1(C)CCC(=C2c3ccccc3CC(=O)c3sccc32)CC1		inactive: -6.51%
CCCn1cc(NC(=O)c2cc(-c3ccccc3)on2)cn1	inconclusive: 22.4 µM [inhibitor, single point]	
CCOC(=O)/C(=N\Nc1ccc(C(C)=O)cc1)c1csc(Nc2ccccc2)n1	inconclusive: 11.2 µM [inhibitor, partial curve]	
OC1C=CSc2nc3ccccc3n21 (configuration not stated)	inconclusive: 22.4 µM [inhibitor, single point]	
O=C(C(=O)N1CCc2ccccc2C1)c1cn(CC(=O)N2CCCC2)c2ccccc12		inactive: 4.02%
CC(C)NC(=O)CN1C(=O)c2cccnc2Sc2ccccc21		inactive: 1.93%
COc1ccc(C(C[N+](=O)[O-])c2c(C)cc3ccccn23)cc1 (configuration not stated)	inconclusive: 35.5 µM [inhibitor, single point]	
c1ccc2c(c1)[nH]c1c(N3CCN(C4CCCCC4)CC3)ncnc12		inactive: 2.81%
O=C(/C=C/c1ccccc1)N(Cc1cccc(Cl)c1)C1CCS(=O)(=O)C1 (configuration not stated)		inactive: -0.476%
Cc1cc(C)nc(Nc2nc(C(N)CCc3ccccc3)cs2)n1 (configuration not stated)	inconclusive: 35.5 µM [inhibitor, single point]	
COc1cc(Cn2c(-c3nonc3N)nc3ccccc32)ccc1C	inconclusive: 1.58 µM [inhibitor, full curve]	

SMILES	Potency	activity, negative = active
COc1ccc(NC(=O)CSc2nc3ccc(OC)cc3[nH]2)cc1		inactive: -3.97%
O[C@@H]1CN(Cc2cccs2)[C@@H](c2ccc(Cl)cc2)C[C@H]1n1cc(C2CC2)nn1	inconclusive: 28.2 µM [inhibitor, single point]	
COc1ccc(-c2cc(NC=O)c3ncc(-c4ccc(C(C)=O)cc4)n3c2)cn1	inconclusive: 2.82 µM [inhibitor, full curve]	
O=C(CCCN1C(=O)/C(=C/c2ccccc2Cl)SC1=S)NNC(=O)c1ccccc1		inactive: 1.95%
O=c1c(-c2cc(-c3ccccc3)nc3c2COc2ccccc2-3)coc2ccc(Cl)cc12		inactive: -0.696%
CCC(c1nnc(SCC(=O)NCCc2ccc(Cl)cc2Cl)o1)N(C)C (configuration not stated)		inactive: -0.767%
Cc1cc(OCC(=O)Nc2nnc(C3CC3)s2)ccc1Cl	active: 2.82 µM	
O=C(N/N=C/c1ccc(Br)cc1)c1ccccc1-n1cccc1	inconclusive: 6.31 µM [inhibitor, full curve]	
N#Cc1c(C#N)c(SSc2c(C#N)c(C#N)c(N)n2-c2ccccc2)n(-c2ccccc2)c1N		inactive: -0.42%
COc1ccc(/C=C/C(=O)c2ccncc2)c2ccccc12		inactive: -15.2%
Cc1cc(OC(C)C(=O)NC(Cc2c[nH]c3ccc(O)cc23)C(=O)O)c2c(C)c(C)c(=O)oc2c1 (configuration not stated)		inactive: -0.726%
N#CC1=C(SCC(=O)NC2CCCCC2)NC(=O)CC1c1ccco1 (configuration not stated)	inconclusive: 11.2 µM [inhibitor, partial curve]	
COc1ccc(-c2nc(CCl)cs2)cc1OC		inactive: -0.369%
Nc1c(C(=O)C2CC2)sc2nc(-c3ccccc3)cc(C(F)(F)F)c12	inconclusive: 2.51 µM [inhibitor, full curve, poor fit]	
CC(C)(C)C1CCC(=NNC(=O)c2cc3c(s2)CCCC3)CC1 (configuration not stated)	inconclusive: 25.1 µM [inhibitor, partial curve, poor fit]	
COc1cc(C(=O)OCCc2cc3ccccc3c(=O)o2)cc(OC)c1OC	inconclusive: 1.41 µM [inhibitor, full curve, poor fit]	
COc1cc(/C=C2\N=C(c3ccccc3)NNC2=O)cc(OC)c1OC	inconclusive: 12.6 µM [inhibitor, partial curve, poor fit]	
CNC(=O)C(=O)N1CCC2(CC1)OCCN2S(=O)(=O)c1ccc(C)cc1		inactive: -0.454%
COc1ccc(-c2nc(C)c(CCNS(=O)(=O)c3ccc(F)cc3)s2)cc1OC	inconclusive: 15.8 µM [inhibitor, partial curve, poor fit]	
CCCc1nc2ccc(C)cn2c1Cc1ccccc1C(F)(F)F	inconclusive: 22.4 µM [inhibitor, single point]	
CCOc1cccc(-n2nnnc2-c2ccc(OC)cc2)c1	inconclusive: 6.31 µM [inhibitor, partial curve]	
Cn1c(SCC(=O)Nc2ccc(Cl)cn2)nnc1C1CC1		inactive: 2.25%
Cc1cc(C(=O)CN2C(=O)C(=O)N(Cc3ccccc3)C2=O)c(C)n1Cc1ccccc1		inactive: -2.52%
O=C(c1ccccc1)C(CN1CCCCC1)c1ccccc1 (configuration not stated)	inconclusive: 12.6 µM [inhibitor, partial curve]	
